Laboratory results published in paper PMC6919601, “Identification of Plasmodium dipeptidyl aminopeptidase allosteric inhibitors by high throughput screening” (PLoS ONE, 2019).
The campaign covered roughly 110,000 compounds. About 230 (0.21%) showed an effect of 50% or more. Some of the results follow.

The compounds below were run against DPAP1 (Plasmodium falciparum, UniProt Q8IIJ9) (assay: primary screen, percent inhibition; read by cleavage of a fluorogenic dipeptide substrate; higher = more effect of the substance).
Design: species or system P. falciparum D10 trophozoite lysates; single well
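Also: 30 min substrate incubation versus DMSO and 10 µM JCP410 controls.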

Sequence of DPAP1 (Q8IIJ9 whole entry, looked up): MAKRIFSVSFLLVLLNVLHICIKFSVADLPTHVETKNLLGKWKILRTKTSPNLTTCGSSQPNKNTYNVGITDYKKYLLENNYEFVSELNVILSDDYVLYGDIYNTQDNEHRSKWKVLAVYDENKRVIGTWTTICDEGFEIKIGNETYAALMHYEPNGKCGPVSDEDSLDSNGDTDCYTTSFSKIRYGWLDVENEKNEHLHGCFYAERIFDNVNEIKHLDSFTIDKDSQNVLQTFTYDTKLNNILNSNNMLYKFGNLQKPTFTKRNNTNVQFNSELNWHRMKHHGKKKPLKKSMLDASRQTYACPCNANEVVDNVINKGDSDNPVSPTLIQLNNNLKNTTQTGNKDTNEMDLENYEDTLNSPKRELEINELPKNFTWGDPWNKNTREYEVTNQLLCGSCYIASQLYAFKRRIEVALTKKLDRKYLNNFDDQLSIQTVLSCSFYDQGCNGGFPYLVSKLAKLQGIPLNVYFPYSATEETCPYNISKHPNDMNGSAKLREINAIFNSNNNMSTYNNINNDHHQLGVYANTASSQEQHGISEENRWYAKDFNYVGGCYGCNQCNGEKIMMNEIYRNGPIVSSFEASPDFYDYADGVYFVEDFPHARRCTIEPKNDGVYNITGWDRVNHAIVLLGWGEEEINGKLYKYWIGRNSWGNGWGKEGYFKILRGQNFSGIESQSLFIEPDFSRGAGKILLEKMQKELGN

| Compound | % Inhibition @ 10 uM [%] |
| --- | --- |
| CCCNC(=O)NCc1nc(-c2ccc(C)cc2)no1 | 0.00706 |
| CCS(=O)(=O)C1=NSC2=NC(=O)/C(=C\c3ccc(OCc4ccccc4)cc3)C(=N)N21 | 0.163 |
| COc1cc2oc3ccccc3c2cc1NC(=O)COc1ccc(C)cc1 | -1.65 |
| COc1cc(CN2CCN(C/C=C/c3ccccc3)CC2)cc(OC)c1 | -3.15 |
| CCC(C(=O)Nc1cc(C)on1)c1ccccc1 (centres unmarked) | -3.41 |
| CCOC(=O)C(C#N)c1ncccn1 (centres unmarked) | 2.65 |
| O=C(NC1CCN(Cc2ccccc2)CC1)c1cc2c(s1)-c1ccccc1S(=O)(=O)C2 | 0.953 |
| CCN(CC)CC(=O)Nc1ccc(OC)cc1 | -3.92 |
| O=C1c2ccccc2C(=O)N1CCS(=O)(=O)Oc1ccccc1 | 7.5 |
| CCOc1ccc2nc(N3CCC(C(=O)N4CCC(N5CCCCC5)CC4)CC3)sc2c1 | 7.91 |
| CCc1n(CC(O)COCC2CC=CCC2)c2ccccc2[n+]1C (centres unmarked) | -2.14 |
| O=C1CCc2cc(OCc3ccc(Cl)cc3)ccc2O1 | -3.5 |
| O=C(CN1N=C(c2ccc(Cl)cc2)CCC1=O)NC1CCCCCCC1 | 0.514 |
| Cc1ccc(C2CC(O)=C/C(=N/c3[nH]nc(C)c3-c3ccccc3)C2)cc1 (centres unmarked) | 2.31 |
| Cn1c(=O)n(C)c2cc(/C=C3/NC(=O)N(Cc4ccc(Br)cc4)C3=O)ccc21 | 6.69 |
| Cc1c(C(=O)N2CCN(Cc3ccccc3)CC2)sc2ncnc(N3CCCCC3C)c12 (centres unmarked) | 2.38 |
| c1ccc2cc(OCCCCN3CCOCC3)ccc2c1 | -3.37 |
| COc1cccc(/C=c2\sc3nc(-c4cc(OC)c(OC)c(OC)c4)nn3c2=O)c1OC | 5.44 |
| O=C(CCNS(=O)(=O)c1ccc(Cl)cc1)NCc1cccs1 | -3.78 |
| CC(NC(=O)c1nc2ncccn2n1)c1ccccc1 (centres unmarked) | -3.76 |
| COc1ccc(S(=O)Cc2ccc(C(=O)NCc3ccc(OC(C)C)cc3)o2)cc1 (centres unmarked) | -2.15 |
| CCC(=O)Nc1ccc(S(=O)(=O)N2CCOCC2)cc1 | -4.03 |
| Cc1cc(=O)c2c(n1Cc1ccccc1)CC(C)(C)CC2=O | 1.88 |
| CCn1nc(-c2cc(Br)ccc2OC)nc2c(=O)n(C)c(=O)nc1-2 | 25.4 |
| CCOC(=O)N1CCN(C(=O)Cn2cnc3c(nnn3Cc3ccc(C)cc3)c2=O)CC1 | -2.16 |
| COc1ccc(C2C(C#N)=C(N)Oc3c2sc2nc(C)cc(C)c32)cc1 (centres unmarked) | -0.968 |

| Compound | % Inhibition @ 10 uM [%] |
| --- | --- |
| OCC1CCCN1CCCc1ccccc1 (centres unmarked) | -3.8 |
| CCc1[nH]nc2c1C(c1cc(OC)c(OC)c(OC)c1)C(C#N)=C(N)O2 (centres unmarked) | -0.941 |
| O=C(Nc1ccc(S(=O)(=O)N2CCc3ccccc32)cc1)c1ccccc1 | 2.27 |
| Brc1ccccc1OCCCn1ccnc1 | 1.74 |
| Cc1cccc(COc2cccc(C3C(C#N)=C(N)Oc4[nH]nc(C)c43)c2)c1 (centres unmarked) | 6.24 |
| COc1cc(OC)c(OC)cc1/C=C1/N=C(c2cccc3ccccc23)OC1=O | -25 |
| COc1ccc(-c2ccc(-c3noc(-c4ccccc4C)n3)c(OC)n2)cc1 | -1.33 |
| Cc1nn(C)c(C(=O)NC(C)C2CC3CCC2C3)c1Br (centres unmarked) | 3.13 |
| COc1ccccc1OCCN1CCCC1 | -2.91 |
| COC(=O)c1ccn(C(=O)c2ccc(Cl)cc2)n1 | -8.17 |
| CC1CC(=O)C2=C(C1)OC(N)=C(C#N)C2c1ccc(F)c(F)c1 (centres unmarked) | 1.96 |
| CCOc1ccc(C(=O)Nc2ccc(Cl)cc2)cc1 | -3.69 |
| CC1(C)Cc2c(c(N3CCCC3)nc3sc4c(NCCN5CCOCC5)ncnc4c23)CO1 | 4.93 |
| CCc1ccc(CNc2ccc(NC(C)=O)cc2)cc1 | 0.231 |
| CC1CCCCN1CCNS(=O)(=O)c1ccc2nc(O)ccc2c1 (centres unmarked) | -8.32 |
| CCc1ccccc1OCC(=O)Nc1ccc(F)cc1 | -1.43 |
| Cc1ccc(C)c(NC(=O)C[n+]2ccc3ccccc3c2)c1 | -4.12 |
| Cc1cccc(-n2c(Cc3cccn3C)nnc2SCC(=O)NCC2CCCO2)c1C (centres unmarked) | 2.12 |
| COc1cccc(S(=O)(=O)NCc2ccc(C(=O)N3CCN(c4ccccc4OC)CC3)cc2)c1 | 8.18 |
| O=C(O)C12CC3CC(CC(S)(C3)C1)C2 | -8.51 |
| CSc1cccc(NC(=O)c2cncc(Br)c2)c1 | -0.68 |
| CCCCN(C)C(=O)Nc1cn(C)c(=O)c2ccccc12 | 0.201 |
| CCOc1ccc(C(=O)NCc2ccncc2)cc1 | -7.08 |
| CN(CCc1ccccc1)Cc1ccncc1 | -2.02 |
| CCOc1ccc(C2c3c(oc4cc(C)c(C)cc4c3=O)C(=O)N2CCOC)cc1OC (centres unmarked) | -1.11 |
| CCOc1ccc(NC(=O)C2CC(=O)N(c3ccc(OCC)cc3)C2)cc1 (centres unmarked) | 6.65 |

| Compound | % Inhibition @ 10 uM [%] |
| --- | --- |
| CCN1CCn2c1nc(N1CCOCC1)nc2=O | -4.02 |
| O=C(CN1C(=O)c2cccc3cccc1c23)Nc1ccc(F)c(Cl)c1 | 9.01 |
| COc1ccc(CNC(=O)CCc2nnc3ccc(N4CCC(C)CC4)nn23)cc1 | -4.02 |
| O=C(Nc1cc(Cl)ccc1Cl)c1cc(Cl)ccc1NS(=O)(=O)c1ccc(Cl)c([N+](=O)[O-])c1 | 9.29 |
| COc1ccc(NC(=O)COc2ccc(Br)cc2C)cc1 | -2.03 |
| Cc1cc(C)nc(Nc2n[nH]c(-c3ccccc3C)n2)n1 | -6.57 |
| c1ccc2c(c1)c(N1CCN(C3CCCCC3)CC1)nn1nnnc21 | -5.09 |
| COCCNC(=O)C1CCN(S(=O)(=O)c2ccccc2)CC1 | -0.169 |
| O=C(CN1CCN(Cc2ccc(F)cc2Cl)C1=O)NCCCN1CCCC1=O | -2.7 |
| COCc1cc(C)n(CC(=O)Nc2ccccc2)c(=O)c1C#N | -2.88 |
| CCc1nc(C)ccc1OCC(=O)N(CC)CC | -5.15 |
| O=C(Cn1nc(-c2ccc(Cl)cc2)ccc1=O)NCc1ccc2c(c1)OCO2 | 1.62 |
| O=C(O)c1cc(-c2ccc(Cl)cc2)nc2ccccc12 | -2.55 |
| c1ccc(Sc2ccc3c(c2)OCO3)c(CNC2=NCCN2)c1 | -1.36 |
| CC(=O)c1cc(F)c(N2CCN(c3ccc([N+](=O)[O-])cc3F)CC2)cc1C | -1.2 |
| COc1ccc(C2C(=O)N(C3CCC(C)CC3)CC(=O)N2CCc2ccc(Cl)cc2)cc1OC (centres unmarked) | 4.36 |
| CCCCN(C)CCNC(=O)Cn1ncc2c3cc(C)ccc3nc-2c1O | -1.97 |
| Cc1ccc(N2C(=O)CSC2c2ccc(Br)cc2)cc1 (centres unmarked) | -0.132 |
| N#CSCC(=O)N1c2ccccc2CCc2ccccc21 | 6.3 |
| CCC(C)Sc1nc(O)cc(O)n1 (centres unmarked) | 4.03 |
| O=C1CCCc2c1nc(-c1ccccc1Cl)n2O | 0.247 |
| CCOC(=O)C1=C(C)NC(=O)N(C(C)=O)C1c1ccc(OC)cc1 (centres unmarked) | -4.24 |
| COc1cc(CN2CCN(Cc3ccc(C(F)(F)F)cc3)CC2)cc(OC)c1OC | -5.19 |
| CCn1c(P(=O)(O)c2ccc(C(=O)O)cc2)nc2ccccc21 | 3.58 |
| COc1ccccc1Nc1nc(Cl)nc(Sc2nc(C)cc(C)n2)n1 | 1.29 |
| Oc1ccc2ccccc2c1C(c1ccccc1)N1CCOCC1 (centres unmarked) | 4.8 |

| Compound | % Inhibition @ 10 uM [%] |
| --- | --- |
| Cc1ccc(NC(=O)c2c(Cl)c(C)nn2C)c(Br)c1 | 3.72 |
| Cc1cc(C(=O)N2CC(C)CC(C)C2)n(-c2ccccc2)n1 (centres unmarked) | -5.58 |
| CCCCOC(=O)Nc1nccs1 | 0.685 |
| CC1CN(C(=O)c2ccc(Br)cc2)CC(C)O1 (centres unmarked) | 1.84 |
| N/C(c1nsnc1N)=[N+](/[O-])C(=O)c1ccc2nsnc2c1 | 1.97 |
| COc1ccc(C2=NN(C(=O)CCC(=O)O)C(c3ccccc3F)C2)cc1 (centres unmarked) | 4.59 |
| CC(=O)Nc1nc(Cn2nnc(-c3ccc4c(c3)OCO4)n2)nc(N(C)C)n1 | -0.403 |
| Cc1ccc(Cl)cc1NC(=O)C12CCC(C)(C(=O)C1=O)C2(C)C (centres unmarked) | 1.78 |
| N#Cc1nnn(Cc2ccccc2)c1N | -6.84 |
| COC(=O)c1nc2n(n1)C(c1ccccc1C)C1=C(O)CCCC1=N2 (centres unmarked) | -3.37 |
| N=c1n(CCOc2ccc(Cl)cc2)c2ccccc2n1CC(N)=O | -3.72 |
| O=C(c1ccc(COCC(F)(F)F)o1)N1CCCCCC1 | -4.77 |
| Cc1ccnc(NC(=O)CSc2nnc3c(n2)[nH]c2ccccc23)c1 | 1.67 |
| CCC1CCc2c(sc(NC(=O)CC(C)(C)C)c2C#N)C1 (centres unmarked) | 5.67 |
| Cc1cccc(C(=O)Nc2sc3c(c2C(=O)NCc2ccccc2)CCC3)c1 | 2.26 |
| Cc1[nH]c2ccccc2c1C(Nc1cccc(F)c1)c1cccnc1 (centres unmarked) | -0.123 |
| COc1ccc(CN2C(=O)S/C(=C/c3ccc(OC)cc3OC)C2=O)cc1 | -3.78 |
| CN(c1ccc(C(=O)Nc2ccc(F)cc2)cc1)S(=O)(=O)c1ccccc1 | -7.56 |
| O=C(NCCCCc1ccccc1)c1ccccc1Br | 3.53 |
| CCCCOc1ccccc1C1C(C(=O)OC)=CNC=C1C(=O)OC | 3.04 |
| CCCCCCN1C(=O)C(O)=C(C(C)=O)C1c1ccc2c(c1)OCO2 (centres unmarked) | -1.66 |
| C#CCN1C(=O)S/C(=C/c2cc3c(cc2Cl)OCO3)C1=O | -1.93 |
| Cc1cc(C)c2c(N)c(S(=O)(=O)Cc3ccccc3)sc2n1 | 5.37 |
| Cc1ccc(NC(=O)COc2ccc(C)cc2C)c(C)c1 | 4.11 |
| COc1ccc(S(=O)(=O)N2CCCC2C(=O)n2nc(C)cc2C)cc1 (centres unmarked) | 0.343 |
| CC(=O)NCC(C)CCC(=O)C(C)C1C(=O)CC2C3CC=C4CC(OC(C)=O)CCC4(C)C3CCC21C (centres unmarked) | -4.96 |
